The values that follow come from publication PMC6827562 (Structure (London, England : 1993), 2019).

The target in the assay is T1, ASPP2_(905–1128) (human, UniProt Q13625 905-1128).
T1 sequence (looked up): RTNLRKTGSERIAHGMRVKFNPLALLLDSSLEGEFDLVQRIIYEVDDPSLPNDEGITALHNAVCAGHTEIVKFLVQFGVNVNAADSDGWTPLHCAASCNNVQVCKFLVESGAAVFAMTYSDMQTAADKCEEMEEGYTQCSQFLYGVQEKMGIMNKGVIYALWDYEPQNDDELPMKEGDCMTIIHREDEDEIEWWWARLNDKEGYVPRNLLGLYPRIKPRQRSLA
Briefly: native gel or EMSA. (Mobility shift assays separate free from complexed probe on a gel.)

B1: p53 DBD ([…]) (domain or fragment)
chain: not shown
Consider B1, for which the binding result is “binds”.
